Reference: PubChem BioAssay AID624417 (National Center for Advancing Translational Sciences (NCATS), 2012)
Values joined by “and” are separate entries in the source; they are usually repeats but may differ in a detail not shown here. Equal entries are not always repeated. About 6,400 (1.6%) of roughly 410,000 compounds were called active. The inconclusive results got no clear call from the source; some entries with a clear call stand among them for comparison. Calls come from the whole dose curve; as a rule, active = well fitted inhibition curve with a large enough effect; inconclusive = small, poorly fitted or top-dose-only effect; inactive = no such curve, though single readings can be large or run the other way. Where the call is inconclusive, the potency comes from a doubtful curve fit.

Molecular target: Glucagon-like peptide 1 receptor (Homo sapiens) (UniProt P43220)
Assay: qHTS of GLP-1 Receptor Inverse Agonists (Inhibition Mode); note: nearly all actives have a fitted effect of over 55% in size
Settings: HEK293 GLP-1R CRE-luciferase, luminescence, 24 h, GLP-1R form is constitutively active; activity change, negative = inhibition: at 38.3 µM (top of the series) unless noted
How it was run: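 Seeding at 200 cells/uL, 12 h culture, 24 hr compound treatment, then luciferase reagent and a luminescence read; cells are HEK293 stably expressing a constitutively active GLP-1R plus cAMP-responsive luciferase.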
% is set by controls: 0 for no effect and ±100 for the full control effect; potency is the fitted concentration of half-maximal effect; tags give direction and shape of the fitted curve.

Sequence of UniProt P43220 (P43220 whole entry, looked up): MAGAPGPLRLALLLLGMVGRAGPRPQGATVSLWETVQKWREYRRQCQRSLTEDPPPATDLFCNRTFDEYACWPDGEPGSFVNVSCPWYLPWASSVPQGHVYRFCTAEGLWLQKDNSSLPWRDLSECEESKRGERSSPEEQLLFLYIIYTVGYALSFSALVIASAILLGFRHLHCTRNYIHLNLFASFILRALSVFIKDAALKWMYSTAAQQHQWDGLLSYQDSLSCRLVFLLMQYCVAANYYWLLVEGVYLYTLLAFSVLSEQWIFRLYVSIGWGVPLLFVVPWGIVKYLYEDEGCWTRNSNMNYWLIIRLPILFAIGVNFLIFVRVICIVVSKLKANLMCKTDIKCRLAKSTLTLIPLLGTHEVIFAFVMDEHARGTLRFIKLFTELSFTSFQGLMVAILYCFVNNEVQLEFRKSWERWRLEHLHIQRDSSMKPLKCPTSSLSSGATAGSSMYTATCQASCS

Structure (SMILES) | activity change, negative = inhibition | Potency
CC1CCCCN1C(=S)Nc1ccc2nc3n(c(=O)c2c1)CCCCC3 (stereo unspecified) | inactive: -4.42% | 
COc1cccc(NC(=S)N(Cc2ccc(Cl)cc2)Cc2ccc(C(=O)O)cc2)c1 |  | inconclusive: 11.2 µM [inhibitor, single point]
O=C(OCc1c(F)cccc1Cl)c1cccc(S(=O)(=O)N2CCOCC2)c1 |  | inconclusive: 6.31 µM [inhibitor, partial curve, poor fit]
O=C1CCCC(O)=C1N=Nc1ccc(C(=O)O)cc1 | inactive: 3.53% | 
CN(C)CCNc1ncnc2sc(-c3ccccc3)cc12 | inconclusive: -92.3% [inhibitor] | 
COc1ccc(-n2nc(C(=O)Nc3cc(C)c(Cl)cc3OC)c3c4ccccc4n(C)c3c2=O)cc1 | inactive: 5.14% | 
Fc1ccc(-c2nc3n(n2)Cc2ccccc2-3)cc1 |  | inconclusive: 10 µM [inhibitor, partial curve, poor fit]
CC1(C)C2CCC(C2)C1(C)NC(=O)CNCC1CCCCC1 (stereo unspecified) |  | inconclusive: 11.2 µM [inhibitor, partial curve, poor fit]
S=C(NCCCc1ccccc1)Nc1ccc(Cl)cc1 |  | inconclusive: 22.4 µM [inhibitor, single point]
CC(NS(=O)(=O)c1ccc2c(c1)CCN2C(=O)CCCC(=O)O)c1ccccc1 (stereo unspecified) | inactive: 10.8% | 
O=C(/C=C/c1cccc([N+](=O)[O-])c1)c1ccc([N+](=O)[O-])o1 | inactive: 14.6% | 
O=C(Nc1ccc(Cl)c(C(F)(F)F)c1)C1Cc2c(-c3ccccc3)ccnc2O1 (stereo unspecified) |  | inconclusive: 22.4 µM [inhibitor, single point]
Cc1c(NC(=O)c2cccc(NC(=O)COc3cccc(Br)c3)c2)c(=O)n(-c2ccccc2)n1C | inactive: -24.7% | 
O=C(CSc1ccc(-c2ccc(F)cc2)nn1)N1CCCc2ccccc21 |  | inconclusive: 10 µM [inhibitor, partial curve]
O=C(CC(=O)Nc1cccc(F)c1)Nc1cccc(F)c1 |  | inconclusive: 28.2 µM [inhibitor, single point]
N#Cc1nc(/C=C/c2ccc(F)cc2)oc1N1CCCCCC1 |  | inconclusive: 12.6 µM [inhibitor, single point]
CCOc1ccccc1-c1cc(-c2n[nH]c(=S)n2CC)c2ccccc2n1 | inactive: 18% | 
COCc1cc(=O)n2[nH]c(C)cc2n1 | inactive: 5.4% | 
COc1ccc(CN(Cc2ccco2)C(=O)COc2ccccc2Cl)cc1 |  | inconclusive: 12.6 µM [inhibitor, single point]
COc1cc2c(cc1OC)C(SC)=NC1(CCCC1)C2 |  | inconclusive: 20 µM [inhibitor, single point]
COc1ccc(Cl)cc1CC1(C)C(=O)Nc2c(Cl)cccc21 (stereo unspecified) |  | inconclusive: 8.91 µM [inhibitor, single point]
FC(F)(F)Oc1ccccc1C(c1nnnn1C1CCCCC1)N1CCN(C/C=C/c2ccccc2)CC1 (stereo unspecified) |  | inconclusive: 6.31 µM [inhibitor, partial curve, poor fit]

Structure (SMILES) | activity change, negative = inhibition | Potency
Cc1ccc(-n2nnnc2SCC(=O)NC2CCCc3ccccc32)cc1 (stereo unspecified) |  | active: 10 µM
O=C(CN1CCCCCC1)Nc1ccc(Br)cc1Br |  | active: 10 µM
COc1ccc(Cl)c(-c2cc(C(=O)NCc3ccc(C(F)(F)F)cc3)[nH]n2)c1 |  | inconclusive: 12.6 µM [inhibitor, partial curve, poor fit]
Cc1ccc(C)c(Cn2c3ccccc3c3cnn(CC(=O)NC4CCCCCC4)c(=O)c32)c1 | inactive: 3.66% | 
CCC(C)NC(=O)c1ccc(CSc2nc3ccncc3n2Cc2ccc(F)cc2)cc1 (stereo unspecified) |  | inconclusive: 11.2 µM [inhibitor, partial curve, poor fit]
Cc1c2cnn(-c3ccccc3)c(=O)c2c(C)n1CCCC(=O)Nc1cccc(F)c1 | inactive: -25.4% | 
CC(=O)NC(c1ccc(Cl)cc1)c1c(O)ccc2ccc(O)cc12 (stereo unspecified) |  | inconclusive: 11.2 µM [inhibitor, partial curve, poor fit]
O=S(=O)(c1cccc(Cl)c1)n1c(/C=C/c2ccccc2Cl)nc2ccccc21 |  | inconclusive: 10 µM [inhibitor, partial curve, poor fit]
CC(C)(C)NC(=O)C1Cc2ccccc2CN1S(=O)(=O)c1ccc(F)cc1 (stereo unspecified) |  | inconclusive: 15.8 µM [inhibitor, partial curve, poor fit]
Fc1cccc(Cc2c(-c3ccccc3)nc3ccc(Cl)cn23)c1 |  | inconclusive: 15.8 µM [inhibitor, partial curve, poor fit]
COc1ccc(Cn2nnc3c(=O)[nH]c(C4CCN(S(=O)(=O)c5ccc(C)cc5)CC4)nc32)cc1 |  | inconclusive: 11.2 µM [inhibitor, single point]
CCOC(=O)c1ccc(N2CCN(c3ccccc3F)CC2)c(NC(=O)Nc2cccc(OC)c2)c1 |  | inconclusive: 8.91 µM [inhibitor, partial curve, poor fit]
O=C(NCc1cn(-c2ccccc2)nc1-c1ccc(F)cc1)c1cccc([N+](=O)[O-])c1 |  | inconclusive: 8.91 µM [inhibitor, partial curve, poor fit]
Cc1cccc(N2CCN(Cc3nc(-c4cccc(Oc5ccccc5)c4)oc3C)CC2)n1 |  | inconclusive: 28.2 µM [inhibitor, single point]
CNC(=S)N/N=C/c1c(C)nn(-c2cccc(Cl)c2)c1Cl |  | inconclusive: 10 µM [inhibitor, partial curve]
Cc1ccc(CCNC(=O)CNC(=S)N(Cc2ccccc2)Cc2cccnc2)cc1 |  | inconclusive: 8.91 µM [inhibitor, single point]
COc1cc(CNCCC2CCOC(C)(C)C2)ccc1O (stereo unspecified) | inactive: 6.09% | 
O=C(Nc1ccc2ccccc2n1)c1ccccc1Br |  | inconclusive: 28.2 µM [inhibitor, single point]
CC(C)c1ccccc1NC(=O)CCc1nc2ccccc2s1 |  | inconclusive: 28.2 µM [inhibitor, single point]
O=C(Cn1cc(SCc2ccc(Cl)cc2)c2ccccc21)N1CCOCC1 |  | inconclusive: 10 µM [inhibitor, single point] and inconclusive: 28.2 µM [inhibitor, single point]
O=C(Nc1ccccc1C(=O)NC(Cc1ccccc1)C(=O)O)c1ccco1 (stereo unspecified) | inactive: 4.17% | 
CCc1c(-c2ccc(OC)cc2)ncn1Cc1cccc(-c2ccccc2)c1 |  | inconclusive: 10 µM [inhibitor, partial curve, poor fit]

Structure (SMILES) | activity change, negative = inhibition | Potency
CC(CCc1ccccc1)NCc1ccncc1 (stereo unspecified) | inactive: 0% | 
COc1ccc(NC(=O)C2CCCN2C(=O)Nc2ccc(OC)cc2)cc1 (stereo unspecified) | inactive: 9.36% | 
COc1ccccc1OCC(=O)Nc1cc(S(=O)(=O)N2CCCCC2)ccc1N1CCCCC1 |  | inconclusive: 8.91 µM [inhibitor, partial curve, poor fit]
COc1ccc(NC(=O)c2ccc(S(=O)(=O)N(C)c3ccccc3)cc2)cc1S(=O)(=O)N1CCOCC1 |  | inconclusive: 12.6 µM [inhibitor, single point]
O=C(Cc1cccc(F)c1F)NC1CCCN(Cc2ccc(Cl)cc2)C1 (stereo unspecified) |  | inconclusive: 10 µM [inhibitor, partial curve, poor fit]
O=C(CN1C(=O)c2cccc3cccc(c23)C1=O)N1CCCCCC1 |  | active: 7.94 µM
CN(C)c1ccc(Nc2ccc([N+](=O)[O-])cn2)cc1 | inactive: 7.46% | 
O=C(Nc1ccc(S(=O)(=O)N2CCCCC2)cc1)C1CC(=O)N(c2ccc(Cl)cc2)C1 (stereo unspecified) |  | inconclusive: 28.2 µM [inhibitor, single point]
CC(C)(C)c1cc(CCC(=O)Nc2ccncc2)cc(C(C)(C)C)c1O |  | inconclusive: 7.94 µM [inhibitor, partial curve, poor fit]
COc1ccc(C(CNC(=O)CCNS(=O)(=O)c2ccc(Br)cc2)N2CCCC2)cc1 (stereo unspecified) |  | inconclusive: 11.2 µM [inhibitor, partial curve, poor fit]
COC(=O)N/N=C/c1cc(C)n(-c2ccc(Br)cc2)c1C |  | inconclusive: 10 µM [inhibitor, single point]
Cn1c(=O)c2c(nc(N3CCOCC3)n2Cc2ccccc2F)n(C)c1=O | inactive: 6.32% | 
CN(Cc1ccc(Cl)c(Cl)c1)C(=O)C1CSC2(C)CCC(=O)N12 (stereo unspecified) |  | inconclusive: 22.4 µM [inhibitor, single point]
CSc1nc(N(C)NC(=O)c2ccc(Cl)cc2)c2ccccc2n1 | inactive: -2.78% | 
Cc1nn2c(NC(C)C)c3c(nc2c1-c1ccccc1)CCC3 |  | active: 10 µM
O=C(Cn1cc(C(=O)C(F)(F)F)c2cc(Br)ccc21)N1CCOCC1 |  | inconclusive: 10 µM [inhibitor, partial curve, poor fit]
COc1ccc(S(=O)(=O)N2CCc3ccccc32)cc1C(=O)Nc1ccc(C(N)=O)cc1 |  | inconclusive: 11.2 µM [inhibitor, single point]
CCCn1c(=O)n(C)c(=O)c2c(SCC(=O)Nc3cc(C)on3)nc(C(C)(C)C)nc21 |  | inconclusive: 28.2 µM [inhibitor, single point]
COc1cnc(N(C)C)nc1Sc1ccc(Cl)cc1 |  | inconclusive: 10 µM [inhibitor, single point]
Cc1nn(Cc2ccccc2)c2sc(C(=O)N3CCN(Cc4ccc5c(c4)OCO5)CC3)cc12 |  | inconclusive: 7.08 µM [inhibitor, partial curve, poor fit]
CCOC(=O)c1nn(-c2ccccc2)c(-c2ccccc2)c1C(=O)c1ccccc1 |  | active: 2.82 µM
CCN(c1ccccc1)S(=O)(=O)c1ccc(OC)c(NC(=O)c2cccs2)c1 |  | inconclusive: 10 µM [inhibitor, partial curve, poor fit]
